PubChem BioAssay AID2675 (National Center for Advancing Translational Sciences (NCATS), 2010)
Out of some 280,000 compounds screened, about 100 (0.036%) were called active. The shares of active, inactive and inconclusive entries below differ from those in the screen. The call rests on the fitted dose curve; in most records, active means well fitted inhibition curve with a large enough effect in the signal ratio, with a control signal flat (not every such curve was filed as active); inconclusive means small, poorly fitted or top-dose-only effect, or effect the other way, or a change in a side signal; inactive means no such curve, though single readings can be large or run the other way; the % refers to the signal ratio. Where the call is inconclusive, the potency comes from a doubtful curve fit. A note “side channel” means that the fit belongs to a control or component signal, not to the main read-out.

target: Muscleblind-like protein 1 (Homo sapiens) (UniProt Q9NR56); test: qHTS Assay for Inhibitors of MBNL1-poly(CUG) RNA binding; conditions: TR-FRET MBNL1-His/biotin-(CUG)12 binding, 665/545 ratio; series mostly up to 57.5 µM
Sequence of UniProt Q9NR56 (Q9NR56 whole entry, looked up): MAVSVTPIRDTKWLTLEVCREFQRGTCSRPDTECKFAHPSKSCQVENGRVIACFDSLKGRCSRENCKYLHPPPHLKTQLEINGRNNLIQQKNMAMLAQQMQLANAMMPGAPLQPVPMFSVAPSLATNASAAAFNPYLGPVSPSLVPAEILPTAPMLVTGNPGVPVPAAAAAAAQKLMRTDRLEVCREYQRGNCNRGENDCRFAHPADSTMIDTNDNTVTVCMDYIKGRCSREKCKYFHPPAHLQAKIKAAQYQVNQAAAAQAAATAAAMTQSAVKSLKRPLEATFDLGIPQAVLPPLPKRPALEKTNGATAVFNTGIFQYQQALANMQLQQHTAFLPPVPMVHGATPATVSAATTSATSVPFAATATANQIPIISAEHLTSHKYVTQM
Summary of the method: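 Ratiometric TR-FRET (665 over 545 nm, excitation 340 nm) tracks disruption of MBNL1-His/biotin-(CUG)12 complex after 60 min at room temperature, with compounds at 92 nM to 58 uM final.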
Potency means the concentration at half of the fitted maximal effect; tags describe the fitted curve by direction and shape or compound fluorescence and quenching.

SMILES	Potency
COc1ccc(CNC(=O)c2c(C)nc3ccccn23)cc1	inactive
CC(=O)Nc1c(Cl)cc([N+](=O)[O-])c2ccccc12	inconclusive: 15.8 µM [quencher, side channel, partial curve]
CC(C)(C)C(=O)N1CCN(CCN2C(=O)c3cccc4cccc(c34)C2=O)CC1	inconclusive: 3.55 µM [quencher, side channel, partial curve]
CCc1cc([N+](=O)[O-])cc(CC)c1N	inconclusive: 22.4 µM [quencher, side channel, partial curve]
CC(C)(C)NC(=O)NC(=O)COC(=O)COc1ccc(Cl)cc1Cl	inactive
Cc1occc1C(=O)NNC(=O)c1ccccc1[N+](=O)[O-]	inconclusive: 31.6 µM [quencher, side channel, single point]
Cc1ccc(/C=C2\SC(=S)N(CCCC(=O)Nc3cc(C)on3)C2=O)cc1	inactive
O=c1nc2s/c(=C\c3ccc(-c4ccccc4[N+](=O)[O-])o3)c(=O)n2nc1-c1ccccc1	inconclusive: 12.6 µM [quencher, side channel, partial curve]
Cn1c(=O)c2nc(Cl)c(-c3ccccc3)nc2n(C)c1=O	inconclusive: 7.08 µM [quencher, side channel, partial curve]
Cc1ccc2nc(-c3ccncc3)cc(C(=O)NCc3ccccc3F)c2c1	inconclusive: 10 µM [quencher, side channel, partial curve]
C=CCn1c(SCc2ccc3nonc3c2)nnc1-c1cccs1	inconclusive: 11.2 µM [quencher, side channel, partial curve]
CC1CCCC(C)N1C(=O)CN1CCN(c2nc(-c3ccc(F)cc3)cs2)CC1 (stereo not given)	inconclusive: 0.251 µM [quencher, side channel, full curve, poor fit]
O=C(c1ccc([N+](=O)[O-])cc1)N1CCSC1c1cccc(Cl)c1 (stereo not given)	inconclusive: 7.08 µM [quencher, side channel, partial curve]
O=C(NNc1nc2c(F)cccc2s1)C1=COCCO1	inactive
Cc1cccc2cc(C3CC(c4cccs4)=NN3C(=O)CCC(=O)O)c(Cl)nc12 (stereo not given)	inactive
CCc1cccc(C)c1NC(=O)CN(C)S(=O)(=O)c1ccc(-c2ccc(=O)[nH]n2)s1	inconclusive: 22.4 µM [quencher, side channel, partial curve]
Cc1cc(=O)oc2cc(Oc3ncccc3[N+](=O)[O-])ccc12	inconclusive: 6.31 µM [quencher, side channel, partial curve]
CCCc1nnc2n1N=C(c1ccc(OC)c(OC)c1)CS2	inconclusive: 4.47 µM [quencher, side channel, single point]
c1cncc(-c2nnc(-c3ccco3)o2)c1	inactive
Cc1ccc(C)c(N2CCN(C(=O)C3CCCN(c4ncnc5c4nc4n5CCCCC4)C3)CC2)c1 (stereo not given)	inactive
CCn1c(C)nc([N+](=O)[O-])c1Sc1ccc(F)cc1	inconclusive: 39.8 µM [quencher, single point]
CCCc1nc(SCC(=O)N2CCCC2)c2ccccc2n1	inconclusive: 20 µM [fluorescent, side channel, partial curve]

SMILES	Potency
CC(C)(C)c1nnc2sc(SCCN3C(=O)c4ccccc4C3=O)nn2c1=O	inconclusive: 15.8 µM [quencher, partial curve]
O=C(Oc1c(Br)cc([N+](=O)[O-])cc1Br)c1cccnc1	inactive
CCOC(=O)c1c(N=CN(C)C)c2cc([N+](=O)[O-])cnc2n1C	inconclusive: 10 µM [quencher, partial curve, poor fit]
CCCCCC(=O)OCCc1c(C)nc2nc[nH]n2c1=O	inconclusive: 100 µM [inhibitor, single point]
CC(/C=C/c1ccccc1F)=N\NC(=O)c1ccccc1	inactive
Cc1cc(=O)[nH]c(SCC(=O)Nc2ccc(F)cc2)c1C#N	inconclusive: 100 µM [inhibitor, single point]
Cc1cc(Nc2ccccc2)nn1C(=O)c1ccc([N+](=O)[O-])cc1	inconclusive: 12.6 µM [quencher, side channel, single point]
COc1cccc(NC(=O)CNC(=O)c2ccc([N+](=O)[O-])cc2)c1	inconclusive: 14.1 µM [quencher, partial curve]
Cc1ccc(NS(=O)(=O)c2ccc(C(=O)N3CC(C)OC(C)C3)cc2)cc1 (stereo not given)	inconclusive: 14.1 µM [quencher, side channel, partial curve]
CCOc1ccc(C2=Cc3cc(OC)c(OC)cc3C(=C(Cl)Cl)O2)cc1	inconclusive: 28.2 µM [quencher, side channel, single point]
COc1ccc(-c2c(C#N)sc(C(N)=O)c2-c2ccc(OC)cc2)cc1	inconclusive: 20 µM [fluorescent, side channel, single point]
Cc1nnc(SCc2nc3ccccc3nc2C)s1	inconclusive: 8.91 µM [quencher, side channel, single point]
Cc1cc(-c2ccc([N+](=O)[O-])cc2)nc2ccccc12	inconclusive: 15.8 µM [quencher, side channel, partial curve]
O=C1C(=O)N(CC2CCCO2)C(c2ccccc2[N+](=O)[O-])/C1=C(/O)c1ccccc1 (stereo not given)	inactive
Cc1c(Cl)cccc1NC(=O)NC1CCCCC1	inactive
CCN1C(=O)/C(=C2\SC(=S)N(CCCOC)C2=O)c2ccccc21	inactive
COc1cccc(-n2c(SCC(=O)Nc3cc(C)on3)nc3ccccc3c2=O)c1	inactive
COC1=C(Nc2ccc(OC)cc2)C(=O)c2ccccc2C1=O	inconclusive: 8.91 µM [quencher, side channel, full curve]
Nc1ncnc(NCc2ccccc2)c1[N+](=O)[O-]	inconclusive: 0.1 µM [quencher, side channel, full curve, poor fit]
COc1cccc(Nc2ncnc3ccccc23)c1	inactive
O=C(N/N=C/c1ccc(Br)o1)c1cccnc1	inconclusive: 10 µM [quencher, side channel, partial curve, poor fit]
O=C(Nc1ccccc1Cl)c1ccc([N+](=O)[O-])o1	inconclusive: 7.08 µM [quencher, side channel, partial curve]

SMILES	Potency
COC(=O)CCCC[C@H]1SC[C@H]2NC(=O)N[C@]21O	active: 0.316 µM
S=C(Nc1ccc(Nc2ccccc2)cc1)Nc1ccccn1	inactive
O=c1cnn([C@@H]2O[C@H](CO)[C@@H](O)[C@H]2O)c(=O)[nH]1	inactive
O=c1ccc2cc3c4c(c2o1)CCCN4CCC3	inconclusive: 11.2 µM [quencher, side channel, partial curve]
O=C(COc1ccccc1Cl)Nc1ccc2c(c1)C(=O)NC2=O	inconclusive: 39.8 µM [quencher, side channel, single point]
O=C(CN1CCOCC1)NNc1nc(-c2ccccc2)c2cc(Br)ccc2n1	inconclusive: 11.2 µM [quencher, side channel, partial curve]
COC(=O)c1cc2c(ccn2-c2ccc(F)cc2)n1CC(=O)N1CCN(C(=O)c2ccco2)CC1	inconclusive: 39.8 µM [quencher, side channel, single point]
CCN(CC)S(=O)(=O)c1ccc(N=NC2=C(O)CC(C)(C)CC2=O)cc1	inconclusive: 2.82 µM [quencher, side channel, full curve]
Cc1ccc(NC(=O)N2CCC(C(=O)c3ccc(F)cc3)CC2)cc1	inactive
CSc1cccc(NC(=O)CCS(=O)(=O)c2cccc3nonc23)c1	inconclusive: 14.1 µM [quencher, side channel, partial curve]
Cc1ccc2[nH]c(=O)c(C(c3nnnn3CCc3ccccc3)N3CCOCC3)cc2c1 (stereo not given)	inconclusive: 39.8 µM [quencher, side channel, single point]
CC(Oc1ccc2c(-c3ccccc3)cc(=O)oc2c1)C(=O)NCc1ccccn1 (stereo not given)	inconclusive: 14.1 µM [quencher, side channel, partial curve]
O=c1c2ccccc2nc2c3ccccc3cnn12	inconclusive: 28.2 µM [quencher, side channel, partial curve]
COC(=O)c1ccc(Oc2cc(C)nc(SC)n2)cc1	inconclusive: 39.8 µM [fluorescent, single point]
CCCOc1ccc(N2C(=O)CC(N(CCc3ccc(OC)cc3)C(=O)c3ccccc3)C2=O)cc1 (stereo not given)	inactive
COc1ccc(-c2cc(C)no2)cc1S(=O)(=O)NCCCN(C)Cc1ccccc1	inconclusive: 79.4 µM [inhibitor, partial curve]
CCCn1c(NC(=O)c2cccc(S(=O)(=O)N3CCCC3)c2)nc2ccccc21	inactive
COCCNC(=S)NNc1cccc(C(=O)O)c1	inactive
O=C(Cn1ccc(C(F)(F)F)n1)N=Nc1c(O)[nH]c2ccc(Br)cc12	inconclusive: 11.2 µM [quencher, side channel, partial curve]
CCCC(=O)Nc1ccc(Cl)c(NC(=O)c2ccc([N+](=O)[O-])cc2Cl)c1	inconclusive: 15.8 µM [quencher, side channel, partial curve]
O=C(CCCn1c(=O)c2sccc2n(Cc2cc(=O)n3ccccc3n2)c1=O)NCc1ccco1	inconclusive: 0.708 µM [quencher, side channel, full curve, poor fit]
